Source: the supplement of paper PMC8728848
Some of the results follow.

Tests used:
Test in all cases: glycan array binding signal (z-score within array); higher = stronger binding
Details in all cases: glycan notation: IUPAC condensed, linker removed
[1] = biological target: Gal(b1-4)GlcNAc(b1-6)GalNAc
In short: (§1)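 From the Consortium for Functional Glycomics database, 3228 arrays were curated, keeping only those whose protein sequence was available. Binding is given as a within-array Z-score averaged across arrays sharing a protein sequence and across linkers. Negative Z-scores can be read as non-binding.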

[2] = biological target: Gal(b1-4)GlcNAc(b1-6)[Gal(b1-3)]GalNAc
In short: as §1

[3] = biological target: Gal(b1-4)GlcNAc(b1-6)[Gal(b1-4)GlcNAc(b1-3)]GalNAc
In short: as §1

[4] = biological target: Gal(b1-4)GlcNAc6P
In short: as §1

[5] = biological target: Gal(b1-6)Gal
In short: as §1

[6] = biological target: Gal3S(b1-3)GalNAc
In short: as §1

[7] = biological target: Gal3S(b1-3)GlcNAc
In short: as §1

[8] = biological target: Gal3S(b1-3)[Fuc(a1-4)]GlcNAc
In short: as §1

[9] = biological target: Gal3S(b1-4)Glc
In short: as §1

[10] = biological target: Gal3S(b1-4)Glc6S
In short: as §1

[11] = biological target: Gal3S(b1-4)GlcNAc
In short: as §1

[12] = biological target: Gal3S(b1-4)[Fuc(a1-3)]Glc6S
In short: as §1

[13] = biological target: Gal3S(b1-4)[Fuc(a1-3)]GlcNAc
In short: as §1

[14] = biological target: Gal3S(b1-4)[Fuc(a1-3)]GlcNAc6S
In short: as §1

[15] = biological target: Gal3S4S(b1-4)GlcNAc
In short: as §1

[16] = biological target: Gal3S6S(b1-4)GlcNAc
In short: as §1

[17] = biological target: Gal3S6S(b1-4)GlcNAc6S
In short: as §1

[18] = biological target: Gal4S(b1-4)GlcNAc
In short: as §1

[19] = biological target: Gal4S6S(b1-4)GlcNAc
In short: as §1

[20] = biological target: Gal6P(b1-4)GlcNAc
In short: as §1

[21] = biological target: Gal6S(b1-3)GlcNAc
In short: as §1

[22] = biological target: Gal6S(b1-3)GlcNAc6S
In short: as §1

[23] = biological target: Gal6S(b1-4)Glc
In short: as §1

[24] = biological target: Gal6S(b1-4)Glc6S
In short: as §1

[25] = biological target: Gal6S(b1-4)GlcNAc
In short: as §1

[26] = biological target: Gal6S(b1-4)GlcNAc6S
In short: as §1

[27] = biological target: GalNAc(a1-3)Gal
In short: as §1

[28] = biological target: GalNAc(a1-3)GalNAc
In short: as §1

[29] = biological target: GalNAc(a1-3)GalNAc(b1-3)Gal(a1-4)Gal(b1-4)Glc
In short: as §1

[30] = biological target: GalNAc(a1-3)GalNAc(b1-3)Gal(a1-4)Gal(b1-4)GlcNAc
In short: as §1

[31] = biological target: GalNAc(b1-3)Gal
In short: as §1

[32] = biological target: GalNAc(b1-3)Gal(a1-4)Gal(b1-4)GlcNAc
In short: as §1

[33] = biological target: GalNAc(b1-3)Gal(a1-4)Gal(b1-4)GlcNAc(b1-3)Gal(b1-4)Glc
In short: as §1

[34] = biological target: GalNAc(b1-3)Gal(a1-6)Gal(b1-4)Glc
In short: as §1

[35] = biological target: GalNAc(b1-3)GalNAc
In short: as §1

[36] = biological target: GalNAc(b1-3)GlcNAc
In short: as §1

[37] = biological target: GalNAc(b1-4)Gal(b1-4)Glc
In short: as §1

[38] = biological target: GalNAc(b1-4)GlcNAc
In short: as §1

B1: SP16665A-bot-344-23-344 (Bacteroides ovatus) (protein)
chain: SDNEFPDFDYQTVYFANQYGLRTIELGESEFVDNTLDNQHKMVIKAAWGGGYTNRNNVVINFKVDESLCDNLYFKDTDQPLVPMPASYYTLASDRIAIPKGQIMAGVEVQLTDDFFADEKSISENYVIPLLMTNVQGADSILQGKPVVENPVLTNAGDWSILPQNFVLYAVKYVNPWHGEYLRRGIDHATVAGTSKDIIRHEQFVENDEVVNISTKSMKDNLLTLKTKDESGKDISYTVRLSFAEDGSCTVHSGSQNVVVSGSGKFVSKGEKNSLGGKDRNAIYLDYTVNLTDNNIQLATKDTLVLRTRNVYGGKSLEVVRK
glycan array binding signal (z-score) [1]: 0.329 | glycan array binding signal (z-score) [2]: 0.088 | glycan array binding signal (z-score) [3]: -0.234 | glycan array binding signal (z-score) [4]: 0.203 | glycan array binding signal (z-score) [5]: 0.157 | glycan array binding signal (z-score) [6]: 0.97 | glycan array binding signal (z-score) [7]: -0.098 | glycan array binding signal (z-score) [8]: 0.015 | glycan array binding signal (z-score) [9]: 0.257 | glycan array binding signal (z-score) [10]: -0.049 | glycan array binding signal (z-score) [11]: -0.26 | glycan array binding signal (z-score) [12]: 0.627 | glycan array binding signal (z-score) [13]: -0.285 | glycan array binding signal (z-score) [14]: 0.244 | glycan array binding signal (z-score) [15]: 0.201 | glycan array binding signal (z-score) [16]: -0.342 | glycan array binding signal (z-score) [17]: 0.111 | glycan array binding signal (z-score) [18]: 0.159 | glycan array binding signal (z-score) [19]: -0.453 | glycan array binding signal (z-score) [20]: -0.354 | glycan array binding signal (z-score) [21]: -0.111 | glycan array binding signal (z-score) [22]: -0.062 | glycan array binding signal (z-score) [23]: 0.17 | glycan array binding signal (z-score) [24]: 0.024 | glycan array binding signal (z-score) [25]: -0.335 | glycan array binding signal (z-score) [26]: 0.157 | glycan array binding signal (z-score) [27]: 0.558 | glycan array binding signal (z-score) [28]: 1.35 | glycan array binding signal (z-score) [29]: -0.02 | glycan array binding signal (z-score) [30]: -0.21 | glycan array binding signal (z-score) [31]: -0.419 | glycan array binding signal (z-score) [32]: 0.107 | glycan array binding signal (z-score) [33]: -0.168 | glycan array binding signal (z-score) [34]: -0.042 | glycan array binding signal (z-score) [35]: 0.046 | glycan array binding signal (z-score) [36]: 0.254 | glycan array binding signal (z-score) [37]: -0.085 | glycan array binding signal (z-score) [38]: 1.18
